About 25,000 (6.9%) of roughly 360,000 compounds were called active. Inconclusive means that the source gave no clear call. Such entries were picked first, then a sample of the others. The call rests on the fitted dose curve; in most records, active means well fitted inhibition curve with a large enough effect; inconclusive means small, poorly fitted or top-dose-only effect; inactive means flat fitted curve, though single readings scatter. A potency beside an inconclusive call is a rough fit, not a confirmed value.
The molecules below were run against Luciferin 4-monooxygenase (Photinus pyralis) (UniProt P08659) (assay: qHTS profiling assay for firefly luciferase inhibitor/activator using purifed enzyme and Km concentrations of substrates (counterscreen for miR-21 project)). Settings: purified FLuc, luminescence inhibition; series mostly up to 57.5 µM.
Outline: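 Purified P. pyralis luciferase (10nM final) with 10uM D-luciferin and 10uM ATP (Km levels) in 50mM Tris acetate pH 7.5, 10mM Mg acetate, 0.01% Tween-20, 0.05% BSA; qHTS 6-point titration, ~60 µM downward; luminescence read.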
Further: nearly all actives have a fitted effect of over 55% in size.
Potency means the concentration at half of the fitted maximal effect; tags describe the fitted curve by direction and shape.

UniProt P08659, sequence (P08659 whole entry, looked up): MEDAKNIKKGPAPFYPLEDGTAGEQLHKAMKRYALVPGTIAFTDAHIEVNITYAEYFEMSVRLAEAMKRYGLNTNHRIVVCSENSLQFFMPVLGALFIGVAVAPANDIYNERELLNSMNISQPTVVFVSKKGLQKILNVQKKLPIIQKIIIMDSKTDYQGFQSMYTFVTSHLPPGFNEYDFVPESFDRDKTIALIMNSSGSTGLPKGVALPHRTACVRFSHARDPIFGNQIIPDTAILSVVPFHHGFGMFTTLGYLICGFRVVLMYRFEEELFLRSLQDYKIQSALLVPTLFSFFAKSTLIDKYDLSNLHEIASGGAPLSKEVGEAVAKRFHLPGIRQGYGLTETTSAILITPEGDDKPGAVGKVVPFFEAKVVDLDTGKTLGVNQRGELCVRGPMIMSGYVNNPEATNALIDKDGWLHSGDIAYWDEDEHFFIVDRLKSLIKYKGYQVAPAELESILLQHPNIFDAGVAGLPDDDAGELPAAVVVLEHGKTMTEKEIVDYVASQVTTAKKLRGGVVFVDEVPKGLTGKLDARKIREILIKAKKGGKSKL

Question: For `Cc1sc(NC(=O)CCC(=O)O)c(C(N)=O)c1-c1ccccc1`, which Potency is on record?
Answer: inconclusive: 15.1 µM [inhibitor, partial curve, poor fit]

Question: For `C=CCn1c(C)cc(C(=O)Cn2ncc(Cl)c(Cl)c2=O)c1C`, which Potency is on record?
Answer: active: 5.36 µM

Question: Which Potency does the source give for `Cc1ccc(C)c(-n2c(-c3ccc(Br)cc3)csc2=NC(=O)c2ccccc2F)c1` here?
Answer: inactive

Question: `c1ccc(CSc2nnc(Cc3ccccn3)o2)cc1` was tested. Which Potency did it give?
Answer: inconclusive: 23.9 µM [inhibitor, partial curve, poor fit]

Question: Which Potency does the source give for `O=C(Oc1oc(-c2ccco2)nc1C=Nc1ccc(Cl)cc1)c1ccco1` here?
Answer: inconclusive: 23.9 µM [inhibitor, partial curve, poor fit]

Question: How did the Potency turn out when `Cc1ccccc1C(=O)Nc1nnc(S(=O)(=O)N(C)Cc2ccccc2)s1` was run?
Answer: inconclusive: 23.9 µM [inhibitor, partial curve, poor fit]

Question: How did the Potency turn out when `O=C(/C(=C/c1ccc(Cl)cc1)c1nc2ccccc2[nH]1)c1ccccc1` was run?
Answer: inconclusive: 26.9 µM [inhibitor, partial curve, poor fit]

Question: Which Potency does the source give for `Cc1c(OCC(=O)Nc2cccnc2)ccc2c3c(c(=O)oc12)CCC3` here?
Answer: active: 19 µM

Question: With `CS(=O)(=O)Nc1ccc(C2=NN(C(=O)c3cccc(F)c3)C(c3cccs3)C2)cc1` (configuration not stated) as the molecule, how does the Potency read?
Answer: inactive

Question: With `Nn1c(SCC(=O)Nc2ccc3c(c2)OCO3)nncc1=O` as the molecule, how does the Potency read?
Answer: inconclusive: 37.9 µM [inhibitor, partial curve, poor fit]

Question: Which Potency does the source give for `COc1ccc(CCNC(=O)c2cccs2)cc1` here?
Answer: inconclusive: 16.9 µM [inhibitor, partial curve]

Question: `COc1ccc(CCNC(=O)c2ccccc2)cc1` was tested. Which Potency did it give?
Answer: inconclusive: 26.9 µM [inhibitor, partial curve]

Question: How did the Potency turn out when `Cc1cccc(-n2c(SCC(=O)Nc3ncc(Cl)cc3Cl)nc3ccccc32)c1` was run?
Answer: inactive

Question: `CCCC(=O)Nc1ccc(NC(=O)c2ccco2)cn1` was tested. Which Potency did it give?
Answer: inconclusive: 37.9 µM [inhibitor, partial curve, poor fit]

Question: For `Cc1cc(C(=O)COc2cccnc2[N+](=O)[O-])c(C)n1-c1ccccc1F`, which Potency is on record?
Answer: active: 6.01 µM

Question: How did the Potency turn out when `Clc1ccc(-c2nnc(N3CCOCC3)o2)cc1` was run?
Answer: inconclusive: 23.9 µM [inhibitor, single point]

Question: How did the Potency turn out when `O=C(CCCn1c(=O)c2cccn2c2ccccc21)Nc1cc(C(F)(F)F)ccc1Cl` was run?
Answer: inactive

Question: With `COc1ccc2nc(/N=C/c3cccc(OC)c3O)sc2c1` as the molecule, how does the Potency read?
Answer: active: 0.953 µM

Question: How did the Potency turn out when `Cc1ccc2[nH]c(C(=O)N/N=C/c3ccccc3C(=O)O)c(-c3ccccc3)c2c1` was run?
Answer: inconclusive: 16.9 µM [inhibitor, partial curve]

Question: For `CC(C)(C)C1CCC(=O)N(CCSc2ccccc2)CC1` (configuration not stated), which Potency is on record?
Answer: active: 7.57 µM

Question: Which Potency does the source give for `N#Cc1c(N)nc(SCc2ccncc2)c(C#N)c1-c1cccs1` here?
Answer: inactive

Question: With `CC(C)c1onc(C(=O)Nc2cccc(Cl)c2)c1[N+](=O)[O-]` as the molecule, how does the Potency read?
Answer: inconclusive: 19 µM [inhibitor, partial curve, poor fit]

Question: `COCCN(C(=O)CCCc1nc2ccccc2s1)c1c(N)n(CC(C)C)c(=O)[nH]c1=O` was tested. Which Potency did it give?
Answer: inactive

Question: With `O=C1CCC(=O)N1c1cccc(-c2nc3ccccc3o2)c1` as the molecule, how does the Potency read?
Answer: inconclusive: 26.9 µM [inhibitor, single point]

Question: How did the Potency turn out when `COC(=O)c1ccc(NC(=O)c2ccc3nccnc3c2)cc1` was run?
Answer: inconclusive: 23.9 µM [inhibitor, partial curve, poor fit]

Question: For `CSc1nsc(SC)c1C(=O)O`, which Potency is on record?
Answer: inconclusive: 10.7 µM [inhibitor, partial curve]

Question: `O=C(N/N=C/c1c(Cl)cccc1Cl)c1ccc(F)cc1` was tested. Which Potency did it give?
Answer: inconclusive: 16.9 µM [inhibitor, partial curve]

Question: `C/C(=N\NC(=O)c1ccc(Br)cc1)C1C(=O)c2ccccc2C1=O` was tested. Which Potency did it give?
Answer: inconclusive: 23.9 µM [inhibitor, single point]

Question: Which Potency does the source give for `Cc1c(NC(=O)/C(C#N)=C/c2ccc(-c3ccc(Cl)c(Cl)c3)o2)c(=O)n(-c2ccccc2)n1C` here?
Answer: inactive

Question: With `CSc1ccc(C(=O)C2CCCN(C(=O)c3cc4cc(F)ccc4[nH]3)C2)cc1` (configuration not stated) as the molecule, how does the Potency read?
Answer: inconclusive: 10.7 µM [inhibitor, partial curve, poor fit]

Question: For `O=C(Nc1ccc(N2CCOCC2)c(Cl)c1)C1CCCCC1`, which Potency is on record?
Answer: inconclusive: 37.9 µM [inhibitor, single point]

Question: `CN(C)c1ccc(CN(Cc2ccco2)C(=O)c2ccc(C(C)(C)C)cc2)cc1` was tested. Which Potency did it give?
Answer: inconclusive: 37.9 µM [inhibitor, partial curve, poor fit]

Question: With `COc1ccc(/C=C\c2onc(C)c2S(=O)(=O)N2CCC(C(=O)Nc3ccc(F)cc3F)CC2)cc1` as the molecule, how does the Potency read?
Answer: inactive

Question: `COc1ccc(Nc2nc3ccccc3nc2NS(=O)(=O)c2cccs2)cc1` was tested. Which Potency did it give?
Answer: inconclusive: 37.9 µM [inhibitor, single point]

Question: Which Potency does the source give for `O=C(Nc1ccc(F)cc1)N(CCCN1CCOCC1)Cc1cc2cc3c(cc2[nH]c1=O)OCCO3` here?
Answer: inactive

Question: With `COc1ccc(C)cc1C1=Nc2ccccc2C1(C)C` as the molecule, how does the Potency read?
Answer: inactive

Question: `Cc1ccc(Sc2c(C)nn(-c3ccccc3)c2OC(=O)C(C)(C)C)cc1` was tested. Which Potency did it give?
Answer: inconclusive: 26.9 µM [inhibitor, partial curve, poor fit]

Question: For `N#Cc1ccc(C(=O)Nc2ccc([N+](=O)[O-])cc2)c(F)c1`, which Potency is on record?
Answer: inactive

Question: `O=C(Cc1coc2ccc3ccccc3c12)NCc1cccs1` was tested. Which Potency did it give?
Answer: inconclusive: 21.3 µM [inhibitor, partial curve, poor fit]

Question: With `COc1ccc(OC)c(NS(=O)(=O)c2cc3c(cc2Cl)N(C(C)=O)CCO3)c1` as the molecule, how does the Potency read?
Answer: inconclusive: 13.5 µM [inhibitor, partial curve, poor fit]

Question: How did the Potency turn out when `O=C(Nc1ccccc1F)Nc1ccccc1Br` was run?
Answer: active: 16.9 µM

Question: Which Potency does the source give for `COc1ccc(OC)c(CCNC(=O)CS(=O)(=O)Cc2nc(-c3cccc(Cl)c3)oc2C)c1` here?
Answer: inactive

Question: With `Cc1ccc(NC(=O)c2cccc(C(=O)Nc3ccc(C)c(C)c3)n2)cc1C` as the molecule, how does the Potency read?
Answer: inconclusive: 4.26 µM [inhibitor, single point]

Question: Which Potency does the source give for `COCCNC(=O)c1cc(-c2ccc3c(c2)OCO3)on1` here?
Answer: active: 6.75 µM

Question: With `COC(=O)c1ccc(CSc2ncnc3c2nnn3-c2ccc(OC)cc2)o1` as the molecule, how does the Potency read?
Answer: active: 21.3 µM

Question: With `O=C(CCCOc1ccc(Cl)cc1Cl)n1nnc2ccccc21` as the molecule, how does the Potency read?
Answer: inconclusive: 30.1 µM [inhibitor, partial curve, poor fit]

Question: `CN(C)S(=O)(=O)c1cccc(NC(=O)COC(=O)CCSc2ccc(Cl)cc2)c1` was tested. Which Potency did it give?
Answer: active: 21.3 µM

Question: Which Potency does the source give for `CC12CN3CC(c4ccccc4)(CN(C1)C3c1ccc(O)cc1)C2=O` (configuration not stated) here?
Answer: inactive

Question: With `Cc1cc(/C=N/n2cnnc2)c(C)n1-c1ccccc1` as the molecule, how does the Potency read?
Answer: inconclusive: 37.9 µM [inhibitor, partial curve, poor fit]

Question: With `CCN1CCN(C(=O)c2cc(-c3ccc(Cl)s3)nc3ccccc23)CC1` as the molecule, how does the Potency read?
Answer: active: 19 µM

Question: `CCC(CC)c1nnc(NC(=O)c2ccc3ccccc3n2)s1` was tested. Which Potency did it give?
Answer: active: 5.36 µM

Question: With `COc1cccc(-c2nnc(SCC(=O)N3CCOCC3)o2)c1` as the molecule, how does the Potency read?
Answer: inconclusive: 21.3 µM [inhibitor, single point]

Question: For `CC(=O)c1cccc(NC(=O)c2ccc3c(c2)OCO3)c1`, which Potency is on record?
Answer: active: 26.9 µM

Question: `O=C(O)C1CCCN1C(=O)C1CCN(S(=O)(=O)c2cccc(C(F)(F)F)c2)CC1` (configuration not stated) was tested. Which Potency did it give?
Answer: inactive

Question: How did the Potency turn out when `COCCCNC(=O)c1ccc(-c2csc(C)n2)cc1` was run?
Answer: inconclusive: 21.3 µM [inhibitor, single point]

Question: How did the Potency turn out when `CC1CCCCN1C(=O)Nc1cccc(Cl)c1` (configuration not stated) was run?
Answer: inconclusive: 37.9 µM [inhibitor, single point]

Question: Which Potency does the source give for `CCc1ccc(OCC(=O)NC(Cc2c[nH]c3ccccc23)C(=O)O)cc1` (configuration not stated) here?
Answer: inconclusive: 12 µM [inhibitor, partial curve]

Question: How did the Potency turn out when `COc1ccc(NC2=NC(C)(CO)CS2)cc1` (configuration not stated) was run?
Answer: inconclusive: 23.9 µM [inhibitor, partial curve, poor fit]

Question: With `CC1CCC(NC(=O)c2ccc3nc[nH]c3c2)CC1` (configuration not stated) as the molecule, how does the Potency read?
Answer: inconclusive: 26.9 µM [inhibitor, partial curve, poor fit]

Question: Which Potency does the source give for `C/C(=N\NC(=O)c1csc(C)c1C)c1ccco1` here?
Answer: active: 7.57 µM

Question: `CC(C)CNC(=O)[C@H](Cc1ccccc1)NC(=O)c1cccs1` was tested. Which Potency did it give?
Answer: inactive

Question: For `Cc1ccccc1Nc1cc(C(=O)NCCCN2CCN(c3cccc(Cl)c3)CC2)c2ccccc2n1`, which Potency is on record?
Answer: inactive

Question: How did the Potency turn out when `Cc1ccc(C(C)C)c(OCCSc2nc(-c3ccccc3F)nc3cc(=O)[nH]n23)c1` was run?
Answer: inconclusive: 16.9 µM [inhibitor, partial curve]

Question: How did the Potency turn out when `c1ccc2c(c1)Cc1cc(CN3CCOCC3)ccc1-2` was run?
Answer: active: 9.53 µM

Question: How did the Potency turn out when `CCc1ccc(NC(=O)c2ccc(CN3CC(=O)N4CCCCC4C3=O)cc2)cc1` (configuration not stated) was run?
Answer: inconclusive: 23.9 µM [inhibitor, partial curve]

Question: With `O=C(CCNC(=O)c1ccco1)Nc1nc2ccccc2s1` as the molecule, how does the Potency read?
Answer: inconclusive: 19 µM [inhibitor, partial curve]

Question: Which Potency does the source give for `O=C(O)CC/C(=N\NC(=O)c1ccccc1)c1cccs1` here?
Answer: inconclusive: 30.1 µM [inhibitor, partial curve, poor fit]

Question: How did the Potency turn out when `CC1CC(C)CN(C(=O)c2cc3ccccc3o2)C1` (configuration not stated) was run?
Answer: inconclusive: 21.3 µM [inhibitor, partial curve]

Question: How did the Potency turn out when `COc1ccc(OC)c(Nc2ncnc3ccccc23)c1` was run?
Answer: inconclusive: 19 µM [inhibitor, partial curve]

Question: Which Potency does the source give for `COc1ccc(/C=N/n2cncn2)cc1CSc1ccccn1` here?
Answer: inconclusive: 13.5 µM [inhibitor, partial curve, poor fit]

Question: With `Cc1ccc(CCNS(=O)(=O)c2cc(-c3cc(C)no3)ccc2C)cc1` as the molecule, how does the Potency read?
Answer: inactive

Question: Which Potency does the source give for `COc1ccc(NC(=O)O/N=C2/CCCc3ccc(OC)cc32)cc1` here?
Answer: inconclusive: 19 µM [inhibitor, partial curve, poor fit]

Reference: PubChem BioAssay AID588342 (National Center for Advancing Translational Sciences (NCATS), 2011)
